The assay has as its target T1, GST-DX2 (human, UniProt Q13155-2 1-251).
T1 construct: AIMP2-DX2 (DX2), splicing variant of human AIMP2 that lacks exon II; also called purified GST-DX2; source: purified
T1 sequence (looked up): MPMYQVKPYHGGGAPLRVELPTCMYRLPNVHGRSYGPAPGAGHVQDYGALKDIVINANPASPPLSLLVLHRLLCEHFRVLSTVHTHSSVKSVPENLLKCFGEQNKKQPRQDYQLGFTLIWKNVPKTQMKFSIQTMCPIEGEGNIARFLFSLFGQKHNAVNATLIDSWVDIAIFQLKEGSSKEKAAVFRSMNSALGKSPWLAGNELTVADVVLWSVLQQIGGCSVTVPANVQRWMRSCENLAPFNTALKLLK
Put plainly: pull-down; in vitro pull-down with purified GST-DX2 and purified RAS proteins (native or farnesylated in vitro); immunoblot with anti-pan RAS antibody. The settings on record: both partners purified.

B1: KRAS4A protein (native) (natural protein)
chain: not shown
notes: KRAS4A; also called native KRAS4A
In the case of B1, the binding result was “binds”.

Values taken from publication PMC9095880, “AIMP2-DX2 provides therapeutic interface to control KRAS-driven tumorigenesis” (Nature Communications, 2022).
